From the supplement of paper PMC9174493
The list shows a part of the results. Single values of this set are uncertain. Values with irradiation are relative to irradiated vehicle.

Tests used:
A549-Dual [1] = experiment: NF-kB reporter (SEAP) activity, viability-corrected, relative to vehicle (fold change vs vehicle); higher = more activation of STING-IRF / NF-kB immune response reporter
A549-Dual [2] = experiment: ISRE reporter (Lucia luciferase) activity, viability-corrected, relative to vehicle (fold change vs vehicle); higher = more activation of STING-IRF / NF-kB immune response reporter
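Throughout, for NF-kB reporter (SEAP) activity, viability-corrected, relative to vehicle: viability correction based on the alamar blue assay, with concentrations leaving 10% survival or less dropped.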

| Structure (SMILES) | NF-kB reporter (A549-Dual [1]; 0.1 µM, irradiation: 8 Gy/4 fr) | NF-kB reporter (A549-Dual [1]; 0.1 µM, irradiation: none) | NF-kB reporter (A549-Dual [1]; 0.3 µM, irradiation: 8 Gy/4 fr) | NF-kB reporter (A549-Dual [1]; 0.3 µM, irradiation: none) | NF-kB reporter (A549-Dual [1]; 1 µM, irradiation: 8 Gy/4 fr) | NF-kB reporter (A549-Dual [1]; 1 µM, irradiation: none) | NF-kB reporter (A549-Dual [1]; 3 µM, irradiation: 8 Gy/4 fr) | NF-kB reporter (A549-Dual [1]; 3 µM, irradiation: none) | NF-kB reporter (A549-Dual [1]; 10 µM, irradiation: 8 Gy/4 fr) | NF-kB reporter (A549-Dual [1]; 10 µM, irradiation: none) | ISRE reporter (A549-Dual [2]; 0.1 µM, irradiation: 8 Gy/4 fr) | ISRE reporter (A549-Dual [2]; 0.1 µM, irradiation: none) | ISRE reporter (A549-Dual [2]; 0.3 µM, irradiation: 8 Gy/4 fr) | ISRE reporter (A549-Dual [2]; 0.3 µM, irradiation: none) | ISRE reporter (A549-Dual [2]; 1 µM, irradiation: 8 Gy/4 fr) | ISRE reporter (A549-Dual [2]; 1 µM, irradiation: none) | ISRE reporter (A549-Dual [2]; 3 µM, irradiation: 8 Gy/4 fr) | ISRE reporter (A549-Dual [2]; 3 µM, irradiation: none) | ISRE reporter (A549-Dual [2]; 10 µM, irradiation: 8 Gy/4 fr) | ISRE reporter (A549-Dual [2]; 10 µM, irradiation: none) |
| --- | --- | --- | --- | --- | --- | --- | --- | --- | --- | --- | --- | --- | --- | --- | --- | --- | --- | --- | --- | --- |
| NC(=S)N/N=C/c1ncccc1N [Triapine] | 0.861 | 0.9 | 0.868 | 0.973 | 0.841 | 1.75 | 1.11 | 1.74 | 1.12 | 1.41 | 0.832 | 1.61 | 0.523 | 2.36 | 0.867 | 2.1 | 0.331 | 1.2 | 0.331 | 1.13 |
| CC1(C)C2CCC1(C)C(O)C2 (stereo not given) [Borneol] | 0.978 | 1.38 | 1.1 | 1.75 | 1.3 | 1.24 | 1.1 | 1.09 | 1.02 | 0.947 | 1.13 | 1.24 | 1.16 | 1.18 | 1.1 | 1.09 | 1.12 | 1.17 | 1.07 | 0.855 |
| Nc1ccn(C2OC(CO)C(O)C2(F)F)c(=O)n1 (stereo not given) [Gemcitabine] | 1.37 | 2.75 | 1.35 | 2.83 | 1.23 | 2.64 | 1.34 | 2.83 | 1.27 | 2.13 | 0.542 | 2.89 | 0.481 | 2.6 | 0.427 | 2.49 | 0.337 | 2.17 | 0.399 | 1.6 |
| O=c1ccc2ccc(O)c(O)c2o1 [Daphnetin] | 0.883 | 1.27 | 1.03 | 1.43 | 1.3 | 0.971 | 1.4 | 0.968 | 0.903 | 0.886 | 1.07 | 1.01 | 0.78 | 1.02 | 0.845 | 0.927 | 0.921 | 1.07 | 0.941 | 0.903 |
| CC(=O)O.CCNC(=O)C1CCCN1C(=O)C(CCCNC(=N)N)NC(=O)C(CC(C)C)NC(=O)C(CC(C)C)NC(=O)C(Cc1ccc(O)cc1)NC(=O)C(CO)NC(=O)C(Cc1c[nH]c2ccccc12)NC(=O)C(Cc1c[nH]cn1)NC(=O)C1CCC(=O)N1 (stereo not given) [Leuprolide Acetate] | 1.05 | 1.13 | 1.1 | 0.982 | 0.887 | 1.45 | 0.983 | 1.3 | 0.975 | 1.06 | 1.17 | 1.06 | 1.23 | 1.04 | 1.1 | 1.16 | 1.12 | 0.897 | 1.13 | 1.17 |
| CCc1cc(/C(C)=N/OCc2ccc(C3CCCCC3)c(C(F)(F)F)c2)ccc1CN1CC(C(=O)O)C1 [BAF312 (Siponimod)] | 0.925 | 0.586 | 0.901 | 0.615 | 0.931 | 0.467 | 0.535 | 0.863 | 0.34 | 0.785 | 0.952 | 0.957 | 0.888 | 1.07 | 1 | 0.71 | 0.754 | 1.12 | 0.398 | 0.801 |
| Cc1cccc(N(C)C(=S)Oc2ccc3ccccc3c2)c1 [Tolnaftate] | 0.956 | 0.93 | 0.96 | 0.92 | 0.794 | 0.86 | 0.863 | 0.706 | 0.815 | 0.8 | 1.15 | 0.775 | 1.08 | 0.923 | 0.81 | 0.904 | 0.895 | 0.654 | 0.85 | 0.84 |
| CC1CC2C3CCC4=CC(=O)C=CC4(C)C3(F)C(O)CC2(C)C1(O)C(=O)CO (stereo not given) [Dexamethasone (DHAP)] | 0.6 | 0.841 | 0.542 | 0.88 | 0.798 | 0.797 | 0.466 | 0.674 | 0.469 | 0.904 | 0.0659 | 0.249 | 0.0521 | 0.353 | 0.0665 | 0.343 | 0.0575 | 0.243 | 0.0512 | 0.242 |
| Cc1nnc(C(C)C)n1C1CC2CCC(C1)N2CCC(NC(=O)C1CCC(F)(F)CC1)c1ccccc1 (stereo not given) [Maraviroc] | 1.02 | 1.92 | 1.37 | 2.15 | 1.82 | 1.54 | 2.04 | 1.36 | 1.62 | 1 | 1.15 | 1.53 | 1.11 | 1.4 | 1.13 | 1.25 | 1.2 | 1.44 | 1.35 | 0.795 |
| Cc1c(C(=O)Nc2ccc(N3CC(C)OC(C)C3)nc2)cccc1-c1ccc(OC(F)(F)F)cc1 (stereo not given) [Sonidegib (Erismodegib, NVP-LDE225)] | 1.07 | 1.05 | 1.11 | 1.02 | 1.02 | 1.22 | 0.885 | 1.22 | 0.845 | 1.19 | 1.1 | 0.997 | 0.96 | 0.974 | 1.06 | 0.992 | 0.814 | 0.862 | 0.716 | 1.06 |
| CCN1CCN(Cc2ccc(Nc3ncc(F)c(-c4cc(F)c5nc(C)n(C(C)C)c5c4)n3)nc2)CC1.CS(=O)(=O)O | 0.91 | 0.996 | 0.83 | 1.05 | 0.842 | 1.08 | 0.695 | 0.952 | 0.814 | 1.15 | 0.935 | 1.22 | 0.769 | 1.22 | 0.747 | 1.48 | 0.526 | 1.18 | 0.698 | 1.42 |
| COc1ccc2c(c1)nc(S(=O)Cc1ncc(C)c(OC)c1C)[n]2[Na] (stereo not given) [Omeprazole Sodium] | 0.733 | 0.905 | 0.8 | 0.801 | 0.831 | 0.689 | 1.2 | 0.675 | 0.892 | 0.673 | 0.714 | 0.849 | 0.716 | 0.667 | 0.671 | 0.625 | 0.857 | 0.726 | 0.88 | 0.564 |
| CC(=O)NC(C=O)C(O)C(O)C(O)CO (stereo not given) [N-Acetylglucosamine] | 1.2 | 1.16 | 1.18 | 1.28 | 1.28 | 1.06 | 1.62 | 1.05 | 1.01 | 1.29 | 1.16 | 1.1 | 1.07 | 1.15 | 1.18 | 1.07 | 1.23 | 1.06 | 1.06 | 0.865 |
